Experimental data published in PubChem BioAssay (Tox21).
Activity calls are given as the source filed them. Unless noted, calls come from the whole dose curve; as a rule, active = well fitted curve in the direction sought with a large enough effect in the repeat runs; inconclusive = weak or mixed curves; inactive = no such curve, though single readings can be large; an effect the other way counts as inactive or inconclusive.

Columns and labels:
[1] = qHTS assay for small molecule agonists of the p53 signaling pathway (AID 651631; calls by dose curve; note: nearly all actives have a fitted effect of over 15% in size; note: potency is the fitted concentration of half-maximal effect); conditions: HCT-116 p53RE-bla reporter, beta-lactamase FRET ratio, 16 h; activation: at 73.3 µM (top of the series) unless noted
Outline: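 Readout was fluorescence from the LiveBLAzer FRET substrate, applied for 2 h at room temperature after 16 h compound exposure at 37 °C. Cells were the p53RE-bla HCT-116 line, with beta-lactamase driven by p53 response elements.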

[2] = qHTS assay for small molecule disruptors of the mitochondrial membrane potential (AID 720635); conditions: HepG2 mitochondrial membrane potential, Mito-MPS dye ratio; ratio activity, negative = MMP loss: at 83.2 µM (top of the series) unless noted; note: % is set by controls: 0 for no effect and ±100 for the full control effect
Outline: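 Mitochondrial membrane potential tracked with Mito-MPS dye, red aggregates (ex 540/em 590 nm) against green monomers (ex 490/em 535 nm). Compound treatment 1 hr at 37C, dye 30 min in HepG2.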

[3] = molecular target: Glucocorticoid receptor (Homo sapiens) (UniProt P04150); assay: qHTS assay to identify small molecule antagonists of the glucocorticoid receptor (GR) signaling pathway (AID 720692; active = well fitted inhibition curve with a large enough effect in the signal ratio in the repeat runs, not every such curve was filed as active; inconclusive = weak or mixed curves, or effect the other way; inactive = no such curve, though single readings can be large or run the other way; the % refers to the signal ratio; note: potency is the fitted concentration of half-maximal effect); conditions: GR-bla HeLa, beta-lactamase FRET ratio, dexamethasone-stimulated, 18 h; activity change, negative = inhibition: at 58.5 µM (top of the series) unless noted
Chain of UniProt P04150 (P04150 whole entry, looked up): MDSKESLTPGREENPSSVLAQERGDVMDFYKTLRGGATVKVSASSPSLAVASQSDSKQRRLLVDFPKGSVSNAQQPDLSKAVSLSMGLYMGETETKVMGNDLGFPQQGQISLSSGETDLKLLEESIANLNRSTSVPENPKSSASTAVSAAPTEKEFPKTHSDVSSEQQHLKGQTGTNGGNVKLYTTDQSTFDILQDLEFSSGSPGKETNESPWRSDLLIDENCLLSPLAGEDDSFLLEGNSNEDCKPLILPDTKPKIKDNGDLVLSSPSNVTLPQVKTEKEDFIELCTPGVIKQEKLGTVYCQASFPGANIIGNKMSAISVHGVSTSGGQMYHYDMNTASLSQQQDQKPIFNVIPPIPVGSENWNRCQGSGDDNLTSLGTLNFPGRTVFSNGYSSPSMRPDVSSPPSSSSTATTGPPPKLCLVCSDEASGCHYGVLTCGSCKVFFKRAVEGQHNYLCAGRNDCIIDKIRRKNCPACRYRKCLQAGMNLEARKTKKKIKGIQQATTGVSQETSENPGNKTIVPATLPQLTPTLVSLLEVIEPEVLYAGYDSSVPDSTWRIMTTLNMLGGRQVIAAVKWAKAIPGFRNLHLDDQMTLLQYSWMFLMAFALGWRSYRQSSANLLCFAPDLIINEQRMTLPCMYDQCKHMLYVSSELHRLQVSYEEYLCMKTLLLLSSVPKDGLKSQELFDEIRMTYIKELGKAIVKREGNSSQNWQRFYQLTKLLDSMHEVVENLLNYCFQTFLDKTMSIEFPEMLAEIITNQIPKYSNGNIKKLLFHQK
Outline: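 Fluorescence from cleaved LiveBLAzer B/G FRET substrate reports GRE-driven beta-lactamase in HeLa cells; compounds are tested against 5 nM dexamethasone (final) over 18 h at 37 C, substrate incubation 2 h at room temperature.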

[4] = qHTS assay for identifying genotoxic compounds that show differential cytotoxicity against isogenic chicken DT40 cell lines with known DNA damage response pathways - Rad54/Ku70 mutant cell line (AID 743015); conditions: DT40 Rad54/Ku70 mutant viability, CellTiter-Glo, 40 h; activity change, negative = cytotoxicity: at 66.8 µM (top of the series); note: potency is the fitted concentration of half-maximal effect; nearly all actives have a fitted effect of over 60% in size
[5] = qHTS assay to identify small molecule antagonists of the thyroid receptor (TR) signaling pathway - cell viability counter screen (AID 743064); conditions: GH3.TRE-Luc viability, CellTiter-Fluor, 24 h; activity change, negative = cytotoxic: at 70.3 µM (top of the series) unless noted; note: potency is the fitted concentration of half-maximal effect; nearly all actives have a fitted effect of over 50% in size
Outline: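 In-well cytotoxicity read by CellTiter-Fluor (30 min, 37 C) following 23.5 h exposure of GH3 cells bearing a TRE-luciferase sensor. Compounds were added alongside 1 nM (final) T3 to drive TR transactivation.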

[6] = molecular target: Estrogen receptor (Homo sapiens) (UniProt P03372); assay: qHTS assay to identify small molecule antagonists of the estrogen receptor alpha (ER-alpha) signaling pathway (AID 743069; active = well fitted curve in the direction sought with a large enough effect in the signal ratio in the repeat runs, not every such curve was filed as active; inconclusive = weak or mixed curves, or effect the other way; inactive = no such curve, though single readings can be large or run the other way; the % refers to the signal ratio; note: potency is the fitted concentration of half-maximal effect); conditions: HEK293 ER-alpha-UAS-bla, beta-lactamase ratio, antagonist mode; activity, negative = inhibition: at 69.4 µM (top of the series) unless noted
Chain of UniProt P03372 (P03372 whole entry, looked up): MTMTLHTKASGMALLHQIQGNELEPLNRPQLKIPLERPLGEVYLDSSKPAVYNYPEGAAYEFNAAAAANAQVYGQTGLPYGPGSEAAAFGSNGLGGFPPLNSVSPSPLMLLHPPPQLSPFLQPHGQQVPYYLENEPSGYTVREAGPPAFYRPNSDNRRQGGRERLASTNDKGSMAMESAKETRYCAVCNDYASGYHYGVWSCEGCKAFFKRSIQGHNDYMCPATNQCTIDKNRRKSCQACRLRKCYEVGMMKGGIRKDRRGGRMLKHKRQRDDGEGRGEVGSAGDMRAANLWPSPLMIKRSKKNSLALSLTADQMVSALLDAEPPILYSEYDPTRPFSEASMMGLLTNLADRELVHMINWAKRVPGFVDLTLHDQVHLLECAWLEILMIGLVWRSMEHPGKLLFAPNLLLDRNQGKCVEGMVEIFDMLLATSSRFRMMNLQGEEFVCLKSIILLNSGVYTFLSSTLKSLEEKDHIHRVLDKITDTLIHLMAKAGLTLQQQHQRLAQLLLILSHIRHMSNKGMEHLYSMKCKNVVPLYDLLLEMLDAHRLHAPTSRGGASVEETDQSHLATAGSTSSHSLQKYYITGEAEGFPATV
Outline: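 Compound effects are measured against 17beta-estradiol stimulation in HEK293 cells with a UAS-controlled beta-lactamase reporter for ER-alpha. Exposure lasts 18 hr at 37C; LiveBLAzer B/G FRET substrate follows for 2 hr at room temperature.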

[7] = molecular target: Estrogen receptor (Homo sapiens) (UniProt P03372); assay: qHTS assay to identify small molecule agonists of the estrogen receptor alpha (ER-alpha) signaling pathway using the BG1 cell line (AID 743079); conditions: BG1Luc4E2 cells, ERE-luciferase agonist, 22 h; activation: at 70.3 µM (top of the series) unless noted; note: nearly all actives have a fitted effect of over 20% in size; note: potency is the fitted concentration of half-maximal effect
[8] = qHTS assay to identify small molecule antagonists of the estrogen receptor alpha (ER-alpha) signaling pathway using the BG1 cell line (AID 743080; calls by dose curve;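 note: BG1 cells stimulated with 17beta-estradiol alongside compound; potency is the fitted concentration of half-maximal effect; nearly all actives have a fitted effect of over 25% in size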); conditions: BG1Luc4E2 ERE-luciferase antagonist mode, luminescence; activity change, negative = inhibition: at 70.3 µM (top of the series) unless noted
Outline: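 Endogenous full-length ER-alpha in BG1-Luc-4E2 cells drives a stably integrated 4×ERE luciferase gene; compounds were tested against 17beta-estradiol over 21.5 h, with luminescence and multiplexed viability fluorescence recorded.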

[9] = molecular target: Peroxisome proliferator-activated receptor gamma (Homo sapiens) (UniProt P37231); assay: qHTS assay to identify small molecule agonists of the peroxisome proliferator-activated receptor gamma (PPARg) signaling pathway (AID 743094; active = well fitted activation curve with a large enough effect in the signal ratio in the repeat runs, not every such curve was filed as active; inconclusive = weak or mixed curves, or effect the other way; inactive = no such curve, though single readings can be large or run the other way; the % refers to the signal ratio; note: potency is the fitted concentration of half-maximal effect); conditions: HEK293H PPARg-UAS-bla, beta-lactamase FRET ratio, 17 h; activation: at 57 µM (top of the series) unless noted
Chain of UniProt P37231 (P37231 whole entry, looked up): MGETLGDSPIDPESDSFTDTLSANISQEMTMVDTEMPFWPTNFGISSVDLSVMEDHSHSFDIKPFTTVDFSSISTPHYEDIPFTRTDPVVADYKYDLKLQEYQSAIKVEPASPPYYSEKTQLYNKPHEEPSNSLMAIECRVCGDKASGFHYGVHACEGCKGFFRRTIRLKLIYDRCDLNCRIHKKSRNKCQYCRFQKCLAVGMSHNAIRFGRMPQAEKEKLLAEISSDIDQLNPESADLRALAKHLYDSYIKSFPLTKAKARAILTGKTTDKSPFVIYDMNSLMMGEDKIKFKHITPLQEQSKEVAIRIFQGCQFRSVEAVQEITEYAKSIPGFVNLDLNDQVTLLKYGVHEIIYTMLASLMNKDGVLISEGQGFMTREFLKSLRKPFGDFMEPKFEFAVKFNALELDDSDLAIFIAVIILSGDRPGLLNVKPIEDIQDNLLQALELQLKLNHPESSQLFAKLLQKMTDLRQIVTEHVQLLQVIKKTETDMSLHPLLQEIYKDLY
Outline: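 Stably transfected HEK293H cells (GeneBLAzer PPARg UAS-bla) were incubated with test substances for 17 h at 37C after a 5 h pre-incubation; beta-lactamase activity was then detected by FRET substrate fluorescence.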

[10] = qHTS assay for identifying genotoxic compounds that show differential cytotoxicity against isogenic chicken DT40 cell lines with known DNA damage response pathways - wild type cell line (AID 743012); conditions: DT40 wild type chicken cells viability, CellTiter-Glo, 40 h; activity change, negative = cytotoxicity: at 68.4 µM (top of the series) unless noted; note: nearly all actives have a fitted effect of over 60% in size; note: potency is the fitted concentration of half-maximal effect
Outline: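 Quantitative HTS on parental DT40 cells: 40 h compound treatment at 37 C/5% CO2, with viability then determined by CellTiter-Glo luminescence. Values serve as the DNA repair-proficient reference for differential cytotoxicity.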

[11] = qHTS assay for identifying genotoxic compounds that show differential cytotoxicity against isogenic chicken DT40 cell lines with known DNA damage response pathways - Rev3 mutant cell line (AID 743014); conditions: chicken DT40 Rev3-/- viability, CellTiter-Glo, 40 h; activity, negative = cytotoxicity: at 68.4 µM (top of the series); note: potency is the fitted concentration of half-maximal effect; nearly all actives have a fitted effect of over 55% in size
[12] = qHTS assay to identify small molecule antagonists of the estrogen receptor alpha (ER-alpha) signaling pathway - cell viability counter screen (AID 743074; calls by dose curve;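 note: HEK293 cells carrying ER-alpha-UAS-bla reporter stimulated with 17beta-estradiol; potency is the fitted concentration of half-maximal effect; nearly all actives have a fitted effect of over 45% in size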); conditions: ERalpha-bla HEK293 viability, CellTiter-Glo luminescence, 18 h; series mostly up to 69.4 µM
[13] = qHTS assay to identify small molecule antagonists of the thyroid receptor (TR) signaling pathway (AID 743065); conditions: GH3.TRE-Luc, T3-stimulated luciferase inhibition, 23.5 h; series mostly up to 70.3 µM; note: potency is the fitted concentration of half-maximal effect; nearly all actives have a fitted effect of over 55% in size
Outline: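 Antagonism measured as loss of luciferase signal in GH3 cells stably carrying a TRE-luciferase reporter, co-treated with compound and T3 (1 nM final) for 23.5 h at 37 C. Viability was read in the same well by CellTiter-Fluor.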

[14] = qHTS assay for small molecules that induce genotoxicity in human embryonic kidney cells expressing luciferase-tagged ATAD5 - cell viability (AID 651634; calls by dose curve; note: potency is the fitted concentration of half-maximal effect; nearly all actives have a fitted effect of over 25% in size); conditions: HEK293T ATAD5-luc cells viability, CellTiter-Fluor, 15.5 h; series mostly up to 83.3 µM
Outline: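 Live-cell protease activity (CellTiter-Fluor, fluorescence) indicates viability. HEK293T cells with luciferase-tagged ATAD5; 15.5 hr compound treatment at 37C.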

[15] = molecular target: Glucocorticoid receptor (Homo sapiens) (UniProt P04150); assay: qHTS assay to identify small molecule agonists of the glucocorticoid receptor (GR) signaling pathway (AID 720691; active = well fitted activation curve with a large enough effect in the signal ratio in the repeat runs, not every such curve was filed as active; inconclusive = weak or mixed curves, or effect the other way; inactive = no such curve, though single readings can be large or run the other way; the % refers to the signal ratio; note: potency is the fitted concentration of half-maximal effect); conditions: GR-bla HeLa, beta-lactamase reporter ratio, 18 h; activation: at 62.4 µM (top of the series) unless noted
Outline: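 Beta-lactamase reporter activity, read as fluorescence intensity, was measured in GR-bla HeLa cells exposed to compounds for 18 h at 37 C and then loaded with LiveBLAzer B/G FRET substrate for 2 h at room temperature.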

[16] = qHTS assay to identify small molecule antagonists of the estrogen receptor alpha (ER-alpha) signaling pathway using the BG1 cell line - cell viability counter screen (AID 743081); conditions: BG1Luc4E2 viability, CellTiter-Fluor, 22 h; activity change, negative = cytotoxicity: at 70.3 µM (top of the series);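 note: compound given together with 17beta-estradiol as the ER stimulus; potency is the fitted concentration of half-maximal effect; nearly all actives have a fitted effect of over 45% in size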
[17] = qHTS assay to test for compound auto fluorescence at 590 nm (red) in HepG2 cells (AID 720674); conditions: HepG2 autofluorescence, red 540/590 nm, 1 h; series mostly up to 46 µM; note: % is set by controls: 0 for no effect and ±100 for the full control effect
Outline: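 We screened compounds on adherent HepG2 cells, incubating them for an hour at 37 C in 5% CO2 before reading emission at 590 nm under 540 nm excitation; values reflect equivalence to Rose Bengal sodium fluorescence.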

[18] = molecular target: Androgen receptor (Homo sapiens) (UniProt P10275); assay: qHTS assay to identify small molecule antagonists of the androgen receptor (AR) signaling pathway (AID 743035; active = well fitted inhibition curve with a large enough effect in the signal ratio in the repeat runs, not every such curve was filed as active; inconclusive = weak or mixed curves, or effect the other way; inactive = no such curve, though single readings can be large or run the other way; the % refers to the signal ratio; note: % is set by controls: 0 for no effect and ±100 for the full control effect); conditions: HEK293 AR-UAS-bla, R1881-stimulated, beta-lactamase FRET, 16 h; activity change, negative = inhibition: at 58.5 µM (top of the series) unless noted
Chain of UniProt P10275 (P10275 whole entry, looked up): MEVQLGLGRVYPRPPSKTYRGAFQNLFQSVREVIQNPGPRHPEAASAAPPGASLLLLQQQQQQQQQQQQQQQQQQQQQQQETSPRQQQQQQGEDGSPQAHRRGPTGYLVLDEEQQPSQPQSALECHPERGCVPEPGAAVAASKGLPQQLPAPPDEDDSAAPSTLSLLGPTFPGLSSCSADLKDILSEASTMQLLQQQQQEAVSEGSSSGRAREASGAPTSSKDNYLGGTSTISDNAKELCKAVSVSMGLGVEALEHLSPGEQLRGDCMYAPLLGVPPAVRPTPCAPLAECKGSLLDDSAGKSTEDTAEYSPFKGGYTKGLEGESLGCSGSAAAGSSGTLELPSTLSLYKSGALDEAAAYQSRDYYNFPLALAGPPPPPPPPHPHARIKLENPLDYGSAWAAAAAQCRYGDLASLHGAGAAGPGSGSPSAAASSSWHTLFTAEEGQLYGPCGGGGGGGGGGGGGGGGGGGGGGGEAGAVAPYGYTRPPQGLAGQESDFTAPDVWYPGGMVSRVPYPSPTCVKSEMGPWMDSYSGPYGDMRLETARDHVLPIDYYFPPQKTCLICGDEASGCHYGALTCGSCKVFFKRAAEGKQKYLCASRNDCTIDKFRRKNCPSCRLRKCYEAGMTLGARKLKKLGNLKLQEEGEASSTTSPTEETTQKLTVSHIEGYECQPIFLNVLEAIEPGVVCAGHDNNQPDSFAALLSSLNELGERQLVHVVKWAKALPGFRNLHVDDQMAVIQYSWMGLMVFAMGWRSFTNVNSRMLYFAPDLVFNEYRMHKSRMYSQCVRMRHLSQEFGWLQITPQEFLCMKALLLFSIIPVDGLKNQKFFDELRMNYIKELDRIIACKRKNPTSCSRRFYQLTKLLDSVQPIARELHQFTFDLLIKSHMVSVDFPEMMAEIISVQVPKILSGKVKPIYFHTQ
Outline: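 Cell line: GeneBLAzer AR-UAS-bla GripTite (HEK293). Stimulus: R1881 added after compound. Exposure: 16 h, 37C, 5% CO2. Readout: LiveBLAzer B/G FRET fluorescence after 2 h at room temperature.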

[19] = molecular target: Androgen receptor (Homo sapiens) (UniProt P10275); assay: qHTS assay to identify small molecule agonists of the androgen receptor (AR) signaling pathway (AID 743036; active = well fitted activation curve with a large enough effect in the signal ratio in the repeat runs, with a control signal flat, not every such curve was filed as active; inconclusive = weak or mixed curves, or effect the other way; inactive = no such curve, though single readings can be large or run the other way; the % refers to the signal ratio; note: % is set by controls: 0 for no effect and ±100 for the full control effect); conditions: HEK293 AR-UAS-bla GripTite, beta-lactamase FRET ratio, 16 h; activation: at 62.4 µM (top of the series) unless noted
Outline: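 Activation was read as beta-lactamase FRET signal from LiveBLAzer B/G substrate, added for 2 h at room temperature. Before that, GeneBLAzer AR-UAS-bla GripTite (HEK293) cells had 16 h compound exposure at 37C.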
Tags give direction and shape of the fitted curve or compound fluorescence and quenching.

Cc1nnc2n1-c1ccc(Cl)cc1C(c1ccccc1)=NC2
active: Potency [3] 6.01 µM | Potency [6] 21.3 µM [inconclusive] | Potency [8] 11.9 µM
inconclusive: ratio activity, negative = MMP loss [2] 31.3% | Potency [4] 33.5 µM [cytotoxic, single point] | Potency [5] 33.5 µM [cytotoxic, single point] | Potency [7] 8.41 µM [inhibitor, full curve] | Potency [9] 26.8 µM [activator, single point]
inactive: Potency [1]

O=c1[nH]cc(N(CCCl)CCCl)c(=O)[nH]1
inconclusive: activity change, negative = inhibition [3] -1.31% | Potency [11] 29.8 µM [cytotoxic, single point] | Potency [12] 2.13 µM [rising, full curve, poor fit]
inactive: Potency [10] | Potency [7]
active: Potency [1] 21.1 µM

CNc1ccc(C(=O)CC(O)CCC(C)C2OC(=O)CC(O)CC(=O)CC(O)CC(O)CC(O)CC(O)CC3(O)CC(O)C(C(=O)OC)C(CC(O[C@@H]4O[C@H](C)[C@@H](O)[C@H](N)[C@@H]4O)/C=C/C=C/C=C/C=C/C=C/C=C/C=C/C2C)O3)cc1 (stereo partly drawn)
inconclusive: Potency [1] 33.5 µM [rising, single point] | Potency [10] 33.5 µM [cytotoxic] | Potency [11] 33.5 µM [cytotoxic, partial curve, poor fit] | Potency [4] 33.5 µM [cytotoxic, single point] | Potency [13] 33.5 µM [inhibitor, single point] | Potency [9] 15.1 µM [falling, partial curve, poor fit]
inactive: Potency [3]

CC(C)C[C@H]1C(=O)N2CCC[C@H]2[C@]2(O)O[C@](NC(=O)[C@@H]3C[C@@H]4c5cccc6[nH]cc(c56)C[C@H]4N(C)C3)(C(C)C)C(=O)N12
inconclusive: Potency [14] 13.3 µM [falling, partial curve, poor fit] | Potency [15] 12 µM [rising, partial curve] | activity change, negative = inhibition [3] -40.2% | Potency [16] 11.9 µM [cytotoxic, partial curve] | activation [9] -14.4%
active: Potency [10] 29.8 µM | Potency [11] 23.7 µM | Potency [13] 29.8 µM

OC(c1ccccc1)(c1ccccc1)C1CN2CCC1CC2 (stereo not drawn)
inconclusive: ratio activity, negative = MMP loss [2] 43.3% | Potency [11] 59.6 µM [cytotoxic, single point] | Potency [4] 33.5 µM [cytotoxic, single point] | activation [19] 1.74% | Potency [5] 29.8 µM [cytotoxic]
inactive: Potency [17] | Potency [15] | Potency [18]
